Measured values published in PubChem BioAssay AID504466 (National Center for Advancing Translational Sciences (NCATS), 2011).
Out of some 330,000 compounds screened, about 4,200 (1.3%) were called active. The shares of active, inactive and inconclusive entries below differ from those in the screen. Calls come from the whole dose curve; as a rule, active = well fitted activation curve with a large enough effect; inconclusive = small, poorly fitted or top-dose-only effect; inactive = no such curve, though single readings can be large or run the other way. Where the call is inconclusive, the potency comes from a doubtful curve fit.

Test: qHTS screen for small molecules that induce genotoxicity in human embryonic kidney (HEK293T) cells expressing luciferase-tagged ELG1; note: nearly all actives have a fitted effect of over 60% in size
Conditions: HEK293T ELG1-luciferase reporter, luminescence, 16 h; series mostly up to 46 µM
Summary of the method: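 ELG1-luciferase HEK293T cells, 2,000/well; compound pinned in; 16 hr, 37 °C, 5% CO2; ONE-Glo, 30 min RT; luminescence on CCD imager.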
Potency is the fitted concentration of half-maximal effect; tags give direction and shape of the fitted curve.

Question: Which Potency does the source give for `COCCn1c(C)cc(C(=O)COC(=O)c2ccc(NC(=O)CC#N)cc2)c1C` here?
Answer: inconclusive: 4.61 µM [activator, partial curve]

Question: For `NC(=O)Cn1nnc(-c2ccc(C(F)(F)F)cc2)n1`, which Potency is on record?
Answer: inconclusive: 25.9 µM [activator, partial curve, poor fit]

Question: Which Potency does the source give for `COc1ccc(C(=O)Nc2cc(Cl)ccc2Cl)c(OC)n1` here?
Answer: inconclusive: 5.8 µM [activator, partial curve, poor fit]

Question: With `Cc1c(C)n(CC(O)CN(CCO)CCO)c2ccccc12` (centres undefined) as the compound, how does the Potency read?
Answer: inconclusive: 14.6 µM [activator, partial curve, poor fit]

Question: For `O=C1c2ccccc2C(=O)C1c1ccc2ccccc2n1`, which Potency is on record?
Answer: active: 0.13 µM

Question: With `CC(=O)c1c(C)[nH]c(C(=O)OCc2ccccc2F)c1C` as the compound, how does the Potency read?
Answer: inconclusive: 18.3 µM [activator, single point]

Question: Which Potency does the source give for `COc1ccc(N2CCN(c3cnc4ccccc4n3)CC2)cc1` here?
Answer: inconclusive: 11.6 µM [activator, partial curve]

Question: For `NC(N)=NC(=O)c1nc(Cl)c(N2CCCCCC2)nc1N`, which Potency is on record?
Answer: active: 16.4 µM

Question: Which Potency does the source give for `Cn1nccc1C(=O)NC1CCCc2c1cnn2-c1ccc(C(C)(C)C)cc1` (centres undefined) here?
Answer: inactive

Question: For `CCCn1c(SCC(=O)N2CC(=O)Nc3ccccc32)n[nH]c1=O`, which Potency is on record?
Answer: inactive

Question: With `CCc1nc2oc3ccc(C)cc3c(=O)c2cc1C(=O)OC` as the compound, how does the Potency read?
Answer: inconclusive: 16.4 µM [activator, partial curve]

Question: With `CCOC(=O)N1CCC(N2C(=O)c3ccccc3C2Nc2ccc3c(c2)OCCO3)CC1` (centres undefined) as the compound, how does the Potency read?
Answer: inconclusive: 6.51 µM [activator, partial curve]

Question: Which Potency does the source give for `CC(C)c1cc(Nc2cccc(O)c2)cc(C(C)C)c1O` here?
Answer: inactive

Question: With `Cc1cc(C(=O)CSc2ccc3c(c2)OCCO3)c(C)n1C1CC1` as the compound, how does the Potency read?
Answer: inconclusive: 18.4 µM [activator, single point]

Question: With `C=CCNC(=O)/C(C#N)=C/c1cc(Br)ccc1OC` as the compound, how does the Potency read?
Answer: inconclusive: 29.1 µM [activator, single point]

Question: For `COC(=O)CSc1nnc(NC(=O)c2ccc3c(c2)OCO3)s1`, which Potency is on record?
Answer: active: 14.6 µM

Question: Which Potency does the source give for `COc1cccc(CN(C)C(=O)C(CCSC)NS(=O)(=O)c2ccc3c(c2)OCCO3)c1OC` (centres undefined) here?
Answer: inactive

Question: With `O=C(NNC(=O)c1cccs1)c1ccc2ccccc2c1` as the compound, how does the Potency read?
Answer: inconclusive: 25.9 µM [activator, partial curve, poor fit]

Question: Which Potency does the source give for `C[C@H]1[C@H](C)CC[C@]2(C(=O)O)CC[C@]3(C)C(=CC[C@@H]4[C@@]5(C)C[C@@H](O)[C@H](O)C(C)(C)[C@@H]5CC[C@]43C)[C@H]12` here?
Answer: inconclusive: 32.6 µM [activator, partial curve, poor fit]
